# Experimental data taken from EP4796128A1 (Celltrion, Inc., dated 2025).
# B1: M01-PBX-7016 (Example 3), anti-c-Met antibody-drug conjugate (other)
# heavy: QVQLVQSGAEVKKPGASVKVSCKASGYIFTAYTMHWVRQAPGQGLEWMGWIKPNNGLANYAQKFQGRVTMTRDTSISTAYMELSRLRSDDTAVYYCARSEITTEFDYWGQGTLVTVSS[human IgG1 constant region not spelt out]
# light: DIVMTQSPDSLAVSLGERATINCKSSESVDSYANSFLHWYQQKPGQPPKLLIYRASTRESGVPDRFSGSGSGTDFTLTISSLQAEDVAVYYCQQSKEDPLTFGGGTKVEIKRTVAAPSVFIFPPSDEQLKSGTASVVCLLNNFYPREAKVQWKVDNALQSGNSQESVTEQDSKDSTYSLSSTLTLSKADYEKHKVYACEVTHQGLSSPVTKSFNRGEC
# modifications: mc-GGFG-PBX-7016 linker-payload on a cysteine thiol made by TCEP reduction of the disulfides; 1 drug on each light chain (D1) by LC-MS; position not given; mc-GGFG-PBX-7016 linker-payload on cysteine thiols made by TCEP reduction of the disulfides; 3 drugs on each heavy chain (D3) by LC-MS; positions not given
# notes: also called ADC (M01-PBX-7016)
# Experiments:
# [1] = target: c-Met protein expressed on the surface of tumor cells (UniProt P08581); assay: cell-based or functional assay
# [2] = target: T1, recombinant human c-Met (human, UniProt P08581 25-932); assay: ELISA on recombinant human c-Met
# T1 construct: Recombinant protein used in ELISA and BLI; also called human c-MET protein; human-derived c-Met protein
# [3] = target: T2, monkey c-Met (cynomolgus c-Met) (monkey (cynomolgus), UniProt A0A2K5UM36 25-932); assay: ELISA on monkey (cynomolgus) c-Met
# T2 construct: Recombinant protein used in ELISA and BLI; also called monkey-derived c-MET protein; recombinant monkey c-Met
# [4] = target: T1, recombinant human c-Met; assay: BLI, ADC as loading sample, human c-Met
# [5] = target: T2, monkey c-Met (cynomolgus c-Met); assay: BLI, ADC as loading sample, monkey c-Met
# T1 sequence (P08581 25-932 limits assumed): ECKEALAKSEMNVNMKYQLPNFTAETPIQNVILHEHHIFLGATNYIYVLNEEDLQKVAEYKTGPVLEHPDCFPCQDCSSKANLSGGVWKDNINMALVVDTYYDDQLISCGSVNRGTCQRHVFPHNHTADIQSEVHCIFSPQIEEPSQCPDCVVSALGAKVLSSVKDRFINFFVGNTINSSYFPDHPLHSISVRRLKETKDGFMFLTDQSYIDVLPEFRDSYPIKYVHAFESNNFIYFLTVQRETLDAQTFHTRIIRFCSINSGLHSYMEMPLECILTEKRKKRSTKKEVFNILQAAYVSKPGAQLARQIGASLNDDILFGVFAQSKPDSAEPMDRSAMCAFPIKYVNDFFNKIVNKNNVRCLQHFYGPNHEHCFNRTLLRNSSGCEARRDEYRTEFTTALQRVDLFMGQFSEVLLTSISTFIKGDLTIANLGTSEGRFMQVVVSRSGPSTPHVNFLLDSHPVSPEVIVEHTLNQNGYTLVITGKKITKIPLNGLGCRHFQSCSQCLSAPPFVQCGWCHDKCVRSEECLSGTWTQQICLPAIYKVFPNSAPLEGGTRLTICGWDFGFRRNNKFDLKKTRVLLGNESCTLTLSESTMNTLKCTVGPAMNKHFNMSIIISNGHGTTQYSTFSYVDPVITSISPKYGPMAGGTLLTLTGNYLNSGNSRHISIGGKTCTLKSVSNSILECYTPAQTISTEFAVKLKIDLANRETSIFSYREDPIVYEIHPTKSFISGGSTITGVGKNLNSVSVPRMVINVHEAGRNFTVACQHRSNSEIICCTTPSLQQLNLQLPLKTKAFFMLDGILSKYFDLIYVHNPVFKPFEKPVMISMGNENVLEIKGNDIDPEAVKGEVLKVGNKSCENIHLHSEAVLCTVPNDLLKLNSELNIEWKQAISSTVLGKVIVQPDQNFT
binder,measurement,setting,value
B1,"IC50, in-vitro cell viability (CellTiter-Glo, 6 days), HT29 cells",[1],8.7 nM
same,"IC50, in-vitro cell viability (CellTiter-Glo, 6 days), NCI-H1573 cells",[1],6.1 nM
same,"IC50, in-vitro cell viability (CellTiter-Glo, 6 days), SNU-5 cells",[1],0.11 nM
same,EC50,[2],0.12 nM
same,EC50,[3],0.11 nM
same,Kd,[4],0.774 nM
same,koff,[4],6.29e-05 s⁻¹
same,kon,[4],81300 M⁻¹ s⁻¹
same,Kd,[5],0.917 nM
same,koff,[5],9.17e-05 s⁻¹
same,kon,[5],100000 M⁻¹ s⁻¹
